Results as given in publication PMC12820563, “FoxP3 forms a head-to-head dimer in vivo and stabilizes its multimerization on adjacent microsatellites”.
The list shows a part of the results.

The sequences below were run against T1, MBP-FoxP1dN (Mus musculus, UniProt P58462 326-579) (assay: PD-seq (MBP pull-down with sequencing); 20 mM Tris-HCl pH 7.5, 100 mM NaCl, 1.5 mM MgCl2, 0.4 uM protein, 0.1 uM dsDNA library, 30 min, room temperature, amylose pull-down; high values mean tight binding). Settings: protein: recombinant; tags: His6-MBP; chain copies: 2; dsDNA, one strand shown.
T1 sequence: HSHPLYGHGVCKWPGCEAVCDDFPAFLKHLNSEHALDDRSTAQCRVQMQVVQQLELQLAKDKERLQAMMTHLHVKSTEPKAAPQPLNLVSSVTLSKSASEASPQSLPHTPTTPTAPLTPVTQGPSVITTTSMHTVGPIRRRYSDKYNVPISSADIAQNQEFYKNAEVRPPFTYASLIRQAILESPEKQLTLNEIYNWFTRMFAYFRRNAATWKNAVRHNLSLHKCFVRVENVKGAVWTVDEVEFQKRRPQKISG
Outline: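 Binding is reads-per-million enrichment of pull-down over input, with replicates pooled. It comes from 30 min room-temperature incubation in Tris pH 7.5 buffer with NaCl and MgCl2 of 0.4 µM His6-MBP-tagged, N-terminally truncated mouse FoxP3 or FoxP1 fragment from E. coli with 0.1 µM Klenow-filled degenerate double-stranded DNA library, followed by amylose resin capture, three washes and Illumina sequencing of the released DNA.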

Sequence | binding signal
GATGATTGTTCTCCCAGCTGATGAATTGTATAGGTCGAGTAAACAAATTTTCCTAATCTTTCTGTTCAAGCGCCATCTAC | 1 RPM ratio (pull-down/input)
GATGATTGTTCTCCCAGCTGATGAATTCCAATCATCGAGTAAACAAATTTTCCTAATCTTTCTGTTCAAGCGCCATCTAC | 0.962 RPM ratio (pull-down/input)
GATGATTGTTCTCCCAGCTGATGAATTGACAATGTCGAGTAAACAAATTTTCCTAATCTTTCTGTTCAAGCGCCATCTAC | 1.32 RPM ratio (pull-down/input)
GATGATTGTTCTCCCAGCTGATGAATTCGGTGTCTCGAGTAAACAAATTTTCCTAATCTTTCTGTTCAAGCGCCATCTAC | 0.857 RPM ratio (pull-down/input)
GATGATTGTTCTCCCAGCTGATGAATTCGACGGATCGAGTAAACAAATTTTCCTAATCTTTCTGTTCAAGCGCCATCTAC | 0.799 RPM ratio (pull-down/input)
GATGATTGTTCTCCCAGCTGATGAATTCGAATCCTCGAGTAAACAAATTTTCCTAATCTTTCTGTTCAAGCGCCATCTAC | 0.802 RPM ratio (pull-down/input)
GATGATTGTTCTCCCAGCTGATGAATTTTGTGGTTCGAGTAAACAAATTTTCCTAATCTTTCTGTTCAAGCGCCATCTAC | 1.21 RPM ratio (pull-down/input)
GATGATTGTTCTCCCAGCTGATGAATTACTTGATTCGAGTAAACAAATTTTCCTAATCTTTCTGTTCAAGCGCCATCTAC | 1.12 RPM ratio (pull-down/input)
GATGATTGTTCTCCCAGCTGATGAATTCGTGCGCTCGAGTAAACAAATTTTCCTAATCTTTCTGTTCAAGCGCCATCTAC | 0.833 RPM ratio (pull-down/input)
GATGATTGTTCTCCCAGCTGATGAATTGCGCGACTCGAGTAAACAAATTTTCCTAATCTTTCTGTTCAAGCGCCATCTAC | 1.05 RPM ratio (pull-down/input)
GATGATTGTTCTCCCAGCTGATGAATTGTACCCTTCGAGTAAACAAATTTTCCTAATCTTTCTGTTCAAGCGCCATCTAC | 0.979 RPM ratio (pull-down/input)
GATGATTGTTCTCCCAGCTGATGAATTCTACGCGTCGAGTAAACAAATTTTCCTAATCTTTCTGTTCAAGCGCCATCTAC | 0.902 RPM ratio (pull-down/input)
GATGATTGTTCTCCCAGCTGATGAATTAGTGCTCTCGAGTAAACAAATTTTCCTAATCTTTCTGTTCAAGCGCCATCTAC | 0.89 RPM ratio (pull-down/input)
GATGATTGTTCTCCCAGCTGATGAATTAAGTAGGTCGAGTAAACAAATTTTCCTAATCTTTCTGTTCAAGCGCCATCTAC | 0.924 RPM ratio (pull-down/input)
GATGATTGTTCTCCCAGCTGATGAATTGTGCCGGTCGAGTAAACAAATTTTCCTAATCTTTCTGTTCAAGCGCCATCTAC | 0.899 RPM ratio (pull-down/input)
GATGATTGTTCTCCCAGCTGATGAATTTGTAGTCTCGAGTAAACAAATTTTCCTAATCTTTCTGTTCAAGCGCCATCTAC | 1.05 RPM ratio (pull-down/input)

Sequence | binding signal
GATGATTGTTCTCCCAGCTGATGAATTCAACTACTCGAGTAAACAAATTTTCCTAATCTTTCTGTTCAAGCGCCATCTAC | 0.92 RPM ratio (pull-down/input)
GATGATTGTTCTCCCAGCTGATGAATTGGTTCACTCGAGTAAACAAATTTTCCTAATCTTTCTGTTCAAGCGCCATCTAC | 0.937 RPM ratio (pull-down/input)
GATGATTGTTCTCCCAGCTGATGAATTTCGCGGATCGAGTAAACAAATTTTCCTAATCTTTCTGTTCAAGCGCCATCTAC | 0.795 RPM ratio (pull-down/input)
GATGATTGTTCTCCCAGCTGATGAATTGTCTCATTCGAGTAAACAAATTTTCCTAATCTTTCTGTTCAAGCGCCATCTAC | 1.04 RPM ratio (pull-down/input)
GATGATTGTTCTCCCAGCTGATGAATTGCAGCCCTCGAGTAAACAAATTTTCCTAATCTTTCTGTTCAAGCGCCATCTAC | 0.995 RPM ratio (pull-down/input)
GATGATTGTTCTCCCAGCTGATGAATTGGAGTGCTCGAGTAAACAAATTTTCCTAATCTTTCTGTTCAAGCGCCATCTAC | 0.879 RPM ratio (pull-down/input)
GATGATTGTTCTCCCAGCTGATGAATTCGCCATGTCGAGTAAACAAATTTTCCTAATCTTTCTGTTCAAGCGCCATCTAC | 0.809 RPM ratio (pull-down/input)
GATGATTGTTCTCCCAGCTGATGAATTAACCATGTCGAGTAAACAAATTTTCCTAATCTTTCTGTTCAAGCGCCATCTAC | 0.832 RPM ratio (pull-down/input)
GATGATTGTTCTCCCAGCTGATGAATTGAGGCCTTCGAGTAAACAAATTTTCCTAATCTTTCTGTTCAAGCGCCATCTAC | 0.914 RPM ratio (pull-down/input)
GATGATTGTTCTCCCAGCTGATGAATTCGGGGCCTCGAGTAAACAAATTTTCCTAATCTTTCTGTTCAAGCGCCATCTAC | 0.744 RPM ratio (pull-down/input)
GATGATTGTTCTCCCAGCTGATGAATTGTGTTGCTCGAGTAAACAAATTTTCCTAATCTTTCTGTTCAAGCGCCATCTAC | 1.57 RPM ratio (pull-down/input)
GATGATTGTTCTCCCAGCTGATGAATTCACGCTCTCGAGTAAACAAATTTTCCTAATCTTTCTGTTCAAGCGCCATCTAC | 1.01 RPM ratio (pull-down/input)
GATGATTGTTCTCCCAGCTGATGAATTAATAGCTTCGAGTAAACAAATTTTCCTAATCTTTCTGTTCAAGCGCCATCTAC | 1.01 RPM ratio (pull-down/input)
GATGATTGTTCTCCCAGCTGATGAATTGTAAGCGTCGAGTAAACAAATTTTCCTAATCTTTCTGTTCAAGCGCCATCTAC | 1.03 RPM ratio (pull-down/input)
GATGATTGTTCTCCCAGCTGATGAATTATAGTCCTCGAGTAAACAAATTTTCCTAATCTTTCTGTTCAAGCGCCATCTAC | 0.883 RPM ratio (pull-down/input)
